According to the supplement of paper PMC3334620:
Over roughly 33,000 sequences, “E-score (-0.5 to 0.5)” has its median near -0.053; the highest 2% begin near 0.37. The list shows a part of the results.

What follows are sequences tested against Hap1 (UniProt P0CE41) (assay: PBM E-score (8-mer binding enrichment) (E-score (-0.5 to 0.5)); higher = stronger / more preferred TF binding; most listed sequences are background and not binding sites). Settings: protein concentration: 200 nM; construct: GST-DNA-binding domain.
Sequence of UniProt P0CE41 (P0CE41 whole entry, the tested form may be a part): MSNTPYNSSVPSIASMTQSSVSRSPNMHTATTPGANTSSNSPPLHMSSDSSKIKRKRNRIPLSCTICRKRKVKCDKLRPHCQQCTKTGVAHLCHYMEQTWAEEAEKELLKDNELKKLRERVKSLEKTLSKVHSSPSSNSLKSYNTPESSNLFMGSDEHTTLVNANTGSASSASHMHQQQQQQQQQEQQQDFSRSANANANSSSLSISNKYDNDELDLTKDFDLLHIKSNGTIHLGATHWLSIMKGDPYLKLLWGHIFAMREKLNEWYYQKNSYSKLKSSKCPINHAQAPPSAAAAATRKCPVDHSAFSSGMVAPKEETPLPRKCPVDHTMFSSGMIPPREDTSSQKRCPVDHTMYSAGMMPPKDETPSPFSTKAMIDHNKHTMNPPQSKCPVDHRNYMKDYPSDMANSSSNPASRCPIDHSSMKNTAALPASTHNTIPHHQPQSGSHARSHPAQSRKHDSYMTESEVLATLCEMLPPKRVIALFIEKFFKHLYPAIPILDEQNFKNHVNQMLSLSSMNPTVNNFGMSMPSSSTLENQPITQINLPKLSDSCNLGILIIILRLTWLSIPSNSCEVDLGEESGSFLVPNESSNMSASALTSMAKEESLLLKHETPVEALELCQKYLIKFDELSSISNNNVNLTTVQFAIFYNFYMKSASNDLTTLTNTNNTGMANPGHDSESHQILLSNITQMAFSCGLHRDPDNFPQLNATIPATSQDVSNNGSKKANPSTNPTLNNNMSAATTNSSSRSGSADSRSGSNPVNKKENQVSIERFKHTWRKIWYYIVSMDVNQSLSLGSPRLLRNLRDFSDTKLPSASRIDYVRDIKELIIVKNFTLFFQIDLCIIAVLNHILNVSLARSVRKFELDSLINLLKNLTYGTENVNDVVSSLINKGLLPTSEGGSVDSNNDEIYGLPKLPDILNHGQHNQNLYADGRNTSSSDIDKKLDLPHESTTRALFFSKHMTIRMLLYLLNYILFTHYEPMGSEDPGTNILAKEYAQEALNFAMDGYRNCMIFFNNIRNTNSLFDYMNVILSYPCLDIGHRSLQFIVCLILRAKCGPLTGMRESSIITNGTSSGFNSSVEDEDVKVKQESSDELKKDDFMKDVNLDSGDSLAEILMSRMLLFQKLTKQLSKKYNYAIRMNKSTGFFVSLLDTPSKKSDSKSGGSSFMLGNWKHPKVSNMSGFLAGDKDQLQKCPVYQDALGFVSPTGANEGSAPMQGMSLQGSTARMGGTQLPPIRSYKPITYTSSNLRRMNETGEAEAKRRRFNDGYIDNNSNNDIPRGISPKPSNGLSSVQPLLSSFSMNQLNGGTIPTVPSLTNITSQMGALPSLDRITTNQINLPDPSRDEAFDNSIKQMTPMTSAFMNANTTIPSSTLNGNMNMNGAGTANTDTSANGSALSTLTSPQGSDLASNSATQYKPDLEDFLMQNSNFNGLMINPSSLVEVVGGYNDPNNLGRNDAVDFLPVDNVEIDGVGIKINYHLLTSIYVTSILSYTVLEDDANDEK
Method in brief: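 PURExpress in vitro transcription/translation supplied GST-tagged yeast transcription factors, either full-length or DNA-binding domain. Applied at about 100-200 nM to universal all-10-mer Agilent arrays double-stranded by primer extension, the bound protein was detected with fluorescent anti-GST. E-scores, modified Wilcoxon-Mann-Whitney statistics, were given by the Universal PBM Analysis Suite to ungapped eight-base words pooled with their reverse complements after masliner normalisation.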

Compared with GCGGACAC, GCCTCAGA is lower in “PBM E-score” value: 0.203 for the first, -0.136 for the second.

Compared with CAACCCCG, CGAACTCC is lower in “PBM E-score” value: 0.275 for the first, 0.239 for the second.

Compared with AAAGCTGG, GTGTCAAC is higher in “PBM E-score” value: -0.194 for the first, -0.126 for the second.

Going from AGAATTTG to GTAGGAAA, the “PBM E-score” value falls from -0.0982 to -0.201.

Compared with GCTCCGTA, CATTCAAA is lower in “PBM E-score” value: 0.297 for the first, 0.0502 for the second.

Compared with AGCTCCCG, ATATATAC is higher in “PBM E-score” value: 0.0669 for the first, 0.144 for the second.

Going from ATGCAACA to CACAGTCG, the “PBM E-score” value rises from -0.345 to -0.183.

First: AACCAGGG
Second: TATATCCA
The “PBM E-score” value of the first is lower: -0.174 for the first, 0.113 for the second.

Going from GAAATCAA to CAGTTCGC, the “PBM E-score” value falls from 0.0626 to -0.0818.

Going from AATAAAGC to CATATTGG, the “PBM E-score” value falls from 0.0801 to -0.253.

First: CGATAGAA
Second: CTTGGCGC
The “PBM E-score” value of the first is higher: 0.213 for the first, 0.0636 for the second.

Compared with AGACCCCA, ACCGGAGG is higher in “PBM E-score” value: -0.0132 for the first, 0.399 for the second.

Going from ATGAGACG to TGAGCCCA, the “PBM E-score” value falls from -0.0433 to -0.153.

First: ACAGAGGA
Second: ACGGATCG
The “PBM E-score” value of the first is lower: -0.18 for the first, 0.199 for the second.

Going from AGACCCGC to AGGATCGG, the “PBM E-score” value falls from 0.158 to 0.129.

First: GATCAGCA
Second: TAAATCAA
The “PBM E-score” value of the first is higher: 0.0132 for the first, -0.0853 for the second.

Compared with CGCGTCTA, AGCAACAG is lower in “PBM E-score” value: -0.0862 for the first, -0.091 for the second.

Compared with GCTCCGGA, ACGGTCTA is lower in “PBM E-score” value: 0.444 for the first, -0.00569 for the second.

First: ACGTATTG
Second: GCACGGAC
The “PBM E-score” value of the first is lower: -0.116 for the first, 0.353 for the second.

Compared with TGCTTACA, GAGGGGGC is lower in “PBM E-score” value: -0.178 for the first, -0.199 for the second.

First: ATACGCCC
Second: CATTACTA
The “PBM E-score” value of the first is higher: 0.133 for the first, -0.114 for the second.

Compared with AGGTTCTA, ATCCACGA is lower in “PBM E-score” value: -0.146 for the first, -0.204 for the second.

First: CAAGCAGC
Second: CACTGTAA
The “PBM E-score” value of the first is lower: -0.207 for the first, -0.145 for the second.

First: CTGACACA
Second: ATGTTCAG
The “PBM E-score” value of the first is lower: -0.34 for the first, -0.205 for the second.

Going from ATAAGAAG to ACAAGAGT, the “PBM E-score” value falls from 0.0696 to -0.06.

First: CGTGGTCC
Second: CCTATGAC
The “PBM E-score” value of the first is higher: -0.0363 for the first, -0.13 for the second.

Compared with AAAATGCT, ATCAGTGA is lower in “PBM E-score” value: 0.0607 for the first, -0.209 for the second.

First: GGAGTTAA
Second: CGATGTCC
The “PBM E-score” value of the first is higher: 0.429 for the first, 0.294 for the second.

Going from CTGGCGAA to CCACAGGG, the “PBM E-score” value falls from -0.152 to -0.234.

First: AAGTCGAG
Second: AGAAGGTA
The “PBM E-score” value of the first is lower: -0.359 for the first, -0.0664 for the second.

Going from AGTTGAGC to GAAAACTC, the “PBM E-score” value rises from -0.188 to 0.0404.

Going from ATTCGTTC to ATCTGAGC, the “PBM E-score” value falls from 0.0564 to -0.00782.

Compared with CTGAGATC, AGAAGGAC is higher in “PBM E-score” value: -0.171 for the first, -0.152 for the second.

Going from GTTCATTA to GTTTAGAA, the “PBM E-score” value rises from -0.0465 to -0.0388.

Compared with CAGTCTTA, GGCCCGCC is higher in “PBM E-score” value: -0.248 for the first, 0.168 for the second.

Going from GAAAATAA to CATTGCTC, the “PBM E-score” value rises from -0.0957 to 0.145.

Compared with ACCAGGTG, GAGACCCA is higher in “PBM E-score” value: -0.0817 for the first, -0.0262 for the second.

Going from AACTAAGC to AAGTTGGG, the “PBM E-score” value rises from -0.138 to -0.12.

First: CTCCGAGA
Second: TACCTCTA
The “PBM E-score” value of the first is higher: 0.376 for the first, -0.0913 for the second.

First: ACGACGGA
Second: CAGGGAGA
The “PBM E-score” value of the first is higher: 0.199 for the first, -0.312 for the second.

Going from GGAAACTA to ATTTCGCG, the “PBM E-score” value rises from 0.181 to 0.207.

Compared with AACTCTGC, CGAGGCAG is higher in “PBM E-score” value: -0.162 for the first, -0.0113 for the second.

Compared with ATTTCAAC, TCATGCGA is lower in “PBM E-score” value: 0.0331 for the first, -0.0921 for the second.

Compared with CGATTCGA, CCGCGCAA is lower in “PBM E-score” value: 0.0919 for the first, 0.0206 for the second.

First: AATGCCCC
Second: ACACTAGT
The “PBM E-score” value of the first is higher: 0.0889 for the first, -0.241 for the second.

Compared with ATTTACTG, ATGGCTTG is lower in “PBM E-score” value: -0.0577 for the first, -0.0703 for the second.

Going from AACCTGTG to AATTGGGA, the “PBM E-score” value rises from -0.315 to -0.0769.

First: TAACGCTA
Second: AACAATGT
The “PBM E-score” value of the first is higher: -0.0508 for the first, -0.123 for the second.

First: AACGACCG
Second: AGATAGCG
The “PBM E-score” value of the first is higher: 0.067 for the first, -0.0742 for the second.

First: AGTAAATA
Second: ATCTCTGC
The “PBM E-score” value of the first is higher: 0.101 for the first, -0.0583 for the second.

Compared with GTTTGCAA, AGGTTGTC is lower in “PBM E-score” value: -0.138 for the first, -0.242 for the second.

Going from CGACGCTC to ATATTTTC, the “PBM E-score” value falls from 0.0595 to 0.0401.

Compared with AAGGCCTC, ACGCTGTC is higher in “PBM E-score” value: -0.182 for the first, 0.152 for the second.

Going from CTGCACAC to ACTCAAGA, the “PBM E-score” value rises from -0.253 to -0.214.

Going from CTGGGCCC to CTACGAGC, the “PBM E-score” value falls from 0.0211 to -0.109.

Going from CCTAGTCG to ATCTCGTG, the “PBM E-score” value rises from -0.171 to -0.0856.

Going from ATTCCCCC to TGGTTTAA, the “PBM E-score” value falls from 0.134 to -0.161.

Going from CACGCCCC to ATACGCAG, the “PBM E-score” value falls from 0.0862 to -0.262.

Compared with ATCACTCC, GCCAACAC is higher in “PBM E-score” value: 0.00325 for the first, 0.0365 for the second.

First: GAGCTGGA
Second: GTGCAGTA
The “PBM E-score” value of the first is lower: -0.101 for the first, 0.0339 for the second.

First: CAATCTTC
Second: CCCGTACA
The “PBM E-score” value of the first is higher: -0.138 for the first, -0.146 for the second.

Going from ACGCTTCT to GATAGCTA, the “PBM E-score” value falls from -0.0831 to -0.188.

First: CGACTGAC
Second: GTACCAGA
The “PBM E-score” value of the first is higher: -0.0575 for the first, -0.273 for the second.

Compared with CAAATATC, AAGCTAAC is lower in “PBM E-score” value: 0.172 for the first, -0.139 for the second.

Going from ATATTGAG to CTCCCTGA, the “PBM E-score” value falls from -0.0371 to -0.162.

First: CTACCTGA
Second: CACCAAAG
The “PBM E-score” value of the first is lower: -0.232 for the first, 0.00756 for the second.

First: CCGTCTTC
Second: AATTGCCT
The “PBM E-score” value of the first is higher: 0.167 for the first, 0.0821 for the second.

Compared with ACGGAGAA, AGACCCAT is lower in “PBM E-score” value: 0.27 for the first, -0.137 for the second.

Compared with CACTTTGC, CGGGAGCA is higher in “PBM E-score” value: -0.119 for the first, 0.198 for the second.

First: GGTGCAGA
Second: ATGAACCC
The “PBM E-score” value of the first is lower: -0.121 for the first, -0.0153 for the second.

Compared with TATGTCCA, GCAGCAAC is lower in “PBM E-score” value: 0.126 for the first, -0.0558 for the second.

Going from AGCGCTGG to AGGCCGAT, the “PBM E-score” value rises from -0.0242 to 0.327.

Compared with AACTTCCA, AATCCATT is lower in “PBM E-score” value: 0.0156 for the first, -0.0926 for the second.

First: ATACATCC
Second: CAATTTCC
The “PBM E-score” value of the first is higher: 0.25 for the first, 0.249 for the second.

Compared with GATGCAGC, CAACTAGG is lower in “PBM E-score” value: -0.00204 for the first, -0.171 for the second.

First: AACTTGGG
Second: GACCGCCA
The “PBM E-score” value of the first is higher: 0.0531 for the first, 0.0247 for the second.

First: CGTGAGTA
Second: AAGCTCGC
The “PBM E-score” value of the first is lower: -0.0097 for the first, -0.008 for the second.

Going from CACCACCC to ATGATCTC, the “PBM E-score” value falls from 0.106 to -0.049.

Going from CAACCGCA to CGTACTTA, the “PBM E-score” value rises from 0.0443 to 0.105.

First: CACTCTGG
Second: AGCCAATA
The “PBM E-score” value of the first is higher: -0.116 for the first, -0.23 for the second.

Going from AAATAGTC to GAGAAGGC, the “PBM E-score” value falls from 0.171 to -0.193.

First: CGAGGTGA
Second: CCATGGGG
The “PBM E-score” value of the first is higher: 0.0779 for the first, -0.0695 for the second.

Compared with CACTCCCC, GGAATCTA is lower in “PBM E-score” value: 0.208 for the first, 0.0948 for the second.

Going from TAGGCGAA to AGGACCTA, the “PBM E-score” value rises from -0.14 to 0.095.

First: CAGGGCGG
Second: AACAACGA
The “PBM E-score” value of the first is higher: 0.0375 for the first, -0.0348 for the second.

First: GCGGTCAC
Second: AGGTCACA
The “PBM E-score” value of the first is higher: 0.0915 for the first, -0.242 for the second.
